Laboratory results from PubChem BioAssay AID493208 (National Center for Advancing Translational Sciences (NCATS), 2011).
Among all 44,000 compounds or so, about 340 (0.77%) were called active. Not shown: some 5% with an inconclusive outcome. The call rests on the fitted dose curve; in most records, active means well fitted inhibition curve with a large enough effect; inconclusive means small, poorly fitted or top-dose-only effect; inactive means flat fitted curve, though single readings scatter. This is one part of the list.

Experiment: Acumen qHTS Assay for Inhibitors of the mTORC1 Signaling Pathway in MEF (Tsc2-/-, p53-/-) Cells: Sytravon;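 further: plate controls were DMSO for no effect and rapamycin for full effect; nearly all actives have a fitted effect of over 50% in size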
Conditions: phospho-rpS6 immunofluorescence/PI, 24 h; series mostly up to 38.3 µM; activity change, negative = inhibition: at the top concentration
Method in brief: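 Cell-based qHTS: Tsc2-/- p53-/- MEF, 24 h cpd, 37 °C; fix/perm, anti-phospho-S6 Alexa-488 + PI; Acumen 488 nm scan; pS6/PI ratio, % positive cells; rapamycin 7.5 nM = inhibition ref; PI count = viability.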

Row | SMILES | activity change, negative = inhibition
1 | Cc1ccccc1NC(=O)CSc1cn(CC(=O)N(C(C)C)C(C)C)c2ccccc12 | inactive: -11.2%
2 | COc1cc2c(cc1OC)n(Cc1ccc([N+](=O)[O-])cc1)c(=O)n1nc(-c3ccccc3)nc21 | inactive: -0.0379%
3 | COc1cc2c(cc1OC)C(COc1ccc3c(C)cc(=O)oc3c1)N(C(=O)c1ccccc1F)CC2 (stereo not given) | inactive: -15%
4 | CCOc1ccc(NC(=O)CSc2nc3c([nH]c4ccccc43)c(=O)n2-c2cc(C)cc(C)c2)cc1 | inactive: -0.328%
5 | O=C(COc1cccc(Cl)c1)N1CCC(c2nc3ccccc3o2)CC1 | inactive: -0.298%
6 | Cc1cccc(N2CCN(C(=O)c3cnc4c(C)cccn4c3=O)CC2C)c1 (stereo not given) | inactive: -0.323%
7 | O=C(NCc1ccccc1Cl)C1CCCN(C(=O)c2cnn(-c3ccc(F)cc3)c2-n2cccc2)C1 (stereo not given) | inactive: -0.341%
8 | Cc1nc2c(-c3ccccc3)c(C)nn2c(C)c1CCC(=O)NCCc1ccccc1 | inactive: -7.94%
9 | CC(C)c1ccc(NC(=O)N2CCN(c3ccc(Cl)c(Cl)c3)CC2)cc1 | inactive: -18%
10 | CCOC(=O)c1c(C)oc2c1cc(NS(=O)(=O)c1ccc(C)cc1)c1ccccc12 | inactive: -3.37%
11 | O=C(NC1CC(=O)N(c2ccc(Cl)cc2)C1)C1CCCC1 (stereo not given) | inactive: -9.78%
12 | Cc1ccc(N2CCN(C(=O)c3c(C)oc4ncnc(N5CCCCC5)c34)CC2)c(C)c1 | inactive: 2.28%
13 | COc1ccc(NC(=O)CSc2nc3c(oc4ccccc43)c(=O)n2-c2ccccc2)cc1OC | inactive: -5.25%
14 | CCC(=O)N1c2ccccc2C(C)(c2ccccc2)CC1(C)C (stereo not given) | inactive: -7.33%
15 | CN1CCN(C(=O)c2ccc3c(c2)N(Cc2ccc(F)cc2)C(=O)c2ccccc2S3=O)CC1 (stereo not given) | inactive: -0.409%
16 | CC(C)(C)OC(=O)N1CCC(c2c(C(=O)NCc3ccccc3)cnn2-c2ccc(F)cc2)CC1 | inactive: -2.08%
17 | CCOc1ccccc1NC(=O)c1cc(S(=O)(=O)N2CCOCC2)cn1C | inactive: -0.984%
18 | O=C(CSc1nc(-c2ccccc2)no1)N1CCN(c2ccccc2)CC1 | inactive: -3.66%
19 | CCN1CCc2c(sc(-n3cccc3)c2C(C)NC(=O)Nc2cc(Cl)c(OC)cc2OC)C1 (stereo not given) | inactive: 0.512%
20 | Cc1sc2c(c1C)c(=O)n(Cc1ccccc1)c(=O)n2CC(=O)N(C)c1ccccc1 | inactive: -0.157%

Row | SMILES | activity change, negative = inhibition
21 | CCCNC(=O)c1cnn2c(C(F)F)cc(-c3ccccc3)nc12 | inactive: -5.23%
22 | COc1ccc(CCNc2oc(COc3cccc(C)c3)nc2C#N)cc1OC | inactive: -25.9%
23 | CC(C)Oc1ccc(NC(=O)c2cc3ccccc3o2)cc1 | inactive: -11.1%
24 | COc1ccc(-c2nc(Cn3c(=O)cc(-c4ccccc4)c4c(C)nn(C)c43)c(C)o2)cc1OC | inactive: 0.102%
25 | CCOc1ccc(Nc2nc3c(S(=O)(=O)c4ccc(CC)cc4)nnn3c3ccc(Cl)cc23)cc1 | inactive: 1.21%
26 | CC1CCN(S(=O)(=O)c2ccc3c(ccc(=O)n3CC(=O)NCc3ccc(Cl)cc3)c2)CC1 | inactive: -0.989%
27 | CC(=O)c1cccc(NC(=O)CCc2nc3cccnc3n2Cc2cccs2)c1 | inactive: -9.7%
28 | CC(=O)N1CCc2cc(Br)cc(S(=O)(=O)NCCc3ccc(Cl)cc3)c21 | inactive: -16.5%
29 | O=C(c1cccn1-c1nnc(N2CCCCC2)s1)N1CCN(c2ccc(Cl)cc2)CC1 | inactive: 2.12%
30 | COc1ccc(CCNc2nc3ccc(C)cc3n3cnnc23)cc1OC | inactive: -0.581%
31 | CCOC(=O)CSc1nc(-c2ccc(F)cc2)cc(C(F)(F)F)c1C#N | inactive: 3.45%
32 | CCNc1nc(NC(C)(C)C)nc(Oc2ccc(=O)n(-c3ccccc3)n2)n1 | inactive: -9.03%
33 | CCn1c(C(=O)N2CCC(C(=O)N3CCN(c4ccc(OC)cc4)CC3)CC2)cc2sccc21 | inactive: -4.22%
34 | COc1ccc(Cl)cc1N=C1NC(=O)CC(C(=O)Nc2ccccc2C(F)(F)F)S1 (stereo not given) | inactive: -0.966%
35 | CN(C)c1ccc(C(=O)Nc2c(C(=O)NC(C)(C)C)oc3ccccc23)cc1 | inactive: -0.11%
36 | Cc1cc(C)cc(NC(=O)C(CC(C)C)NC(=O)C2CCCCC2)c1 (stereo not given) | inactive: 5.36%
37 | CC(C)Oc1ccc(CNC(=O)c2ccc3nc(C(C)C)oc3c2)cc1 | inactive: -1.7%
38 | COc1ccc(-c2nc3scc(CCNS(=O)(=O)c4c(C)cc(C)cc4C)n3n2)cc1OC | inactive: -6.43%
39 | CCc1nn2c(=O)cc(COC(=O)c3ccc4c(c3)OCO4)nc2s1 | inactive: 11.2%
40 | O=C(NCCn1cc(SCc2ccccc2)c2ccccc21)c1cccs1 | inactive: -12%

Row | SMILES | activity change, negative = inhibition
41 | CCCc1cc(=O)[nH]c(Nc2ccccc2O)n1 | inactive: -3.18%
42 | Cc1cc(C)cc(C(=O)Nc2cccc(-c3nc4ncccc4o3)c2C)c1 | inactive: 0.833%
43 | CC(C)(C)C1CCc2c(sc(NC(=O)c3ccccc3F)c2C(=O)NCc2ccco2)C1 (stereo not given) | inactive: -0.48%
44 | CC(=O)c1cccc(NC(=O)c2ccc(Cl)c(S(=O)(=O)N3CCOCC3)c2)c1 | inactive: -7.41%
45 | CC(=O)c1c(C)n(-c2ccc(Cl)cc2)c2ccc(OC(=O)COc3ccccc3)cc12 | inactive: -5.79%
46 | c1ccc(N2CCN(Cc3nnc(-c4ccc5c(c4)OCO5)o3)CC2)cc1 | inactive: 1.18%
47 | CCOC(=O)c1cc2c(=O)n3ccccc3nc2n(CCOC)c1=NC(=O)c1cc2ccccc2o1 | inactive: -0.397%
48 | COc1ccc(C2=NS(=O)(=O)N(C)C(C(=O)Nc3ccc(OC(F)(F)F)cc3)=C2)cc1 | inactive: -19.5%
49 | CN(Cc1ccccc1)S(=O)(=O)c1nnc(NC(=O)c2ccccc2Cl)s1 | inactive: 3.12%
50 | Cc1nn(-c2ccc(N3CCCC3)nn2)c(C)c1CCC(=O)NCc1ccccc1 | inactive: -10.1%
51 | COc1cccc(-c2ccc3c(N)c(C(=O)c4ccc(F)cc4)sc3n2)c1 | inactive: -2.69%
52 | CC(NC(=O)CCCN1C(=O)CCn2nc(-c3cn(C)c4ccccc34)cc21)c1ccccc1 (stereo not given) | inactive: -9.87%
53 | CCOC(=O)c1c(C)oc2nc(C)nc(NCC3CCN(Cc4ccc(F)cc4)CC3)c12 | inactive: 0.121%
54 | COc1ccc(CNc2ncnc3c2cnn3-c2ccc(Cl)cc2)cc1 | inactive: -4.95%
55 | O=C(Nc1ccc(Cl)c(-c2nc3ccccc3o2)c1)c1cccc2c(Cl)cccc12 | inactive: -1.7%
56 | COc1ccc(Nc2ccc3cc(S(=O)(=O)N4CCCC4)ccc3n2)cc1OC | inactive: 3.87%
57 | Cc1ccc(CSC2=Nc3ccccc3C3=NC(CCC(=O)NCc4cccs4)C(=O)N23)c(C)c1 (stereo not given) | inactive: -2.86%
58 | Cc1cc(N2CCN(C)CC2)nc2ccc(NC(=O)Nc3ccc(F)cc3F)cc12 | inactive: -3.54%
59 | CCOC(=O)c1ccc(N2CCN(c3cc(Cl)ccc3C)CC2)c(NC(=O)Nc2ccc(OCC)cc2)c1 | inactive: 6.81%
60 | Cc1ccc(-n2c(=O)c3c(c4cc(C)ccc4n3C)n(CC(=O)NCC3CCCO3)c2=O)cc1 (stereo not given) | inactive: 1.74%
